Reference: the supplement of paper PMC4166925
± gives the standard deviation of the averaged measurements. Whole data set: some 33,000 sequences, median “E-score (dimensionless, -0.5 to 0.5)” near -0.049, cut for the highest 2% near 0.37. Some of the results follow.

Test system: T1, PmTbr T-box DNA-binding domain (GST fusion)
T1 sequence: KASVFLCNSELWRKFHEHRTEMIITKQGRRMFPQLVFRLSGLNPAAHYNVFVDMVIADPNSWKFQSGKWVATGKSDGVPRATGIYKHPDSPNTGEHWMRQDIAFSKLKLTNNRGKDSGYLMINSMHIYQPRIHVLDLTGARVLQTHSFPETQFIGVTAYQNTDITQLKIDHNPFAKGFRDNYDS
Assay: PBM E-score of 8-mer (E-score (dimensionless, -0.5 to 0.5)); Tbr is Tbrain of the sea star Patiria miniata (Pm) or the sea urchin Strongylocentrotus purpuratus (Sp); higher = stronger binding preference; most listed sequences are background and not binding sites
Conditions: the construct has about 5 more residues each side
Summary of the method: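 Using the Universal PBM Analysis Suite, every ungapped 8-mer received an enrichment E-score averaged over duplicate arrays. Probe intensities came from double-stranded Universal Agilent oligonucleotide arrays incubated with 200 nM GST-fused Tbr T-box DNA-binding domain in PBS (pH 7.5). That protein was expressed in BL21 E. coli at 20 °C and purified by glutathione affinity chromatography.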

Sequence | PBM E-score of 8-mer
ATTCTCAG | 0.0465 ± 0.077
ATCAGAAA | -0.0057 ± 0.0071
AACGCCCC | 0.242 ± 0.04
ACTTTCAT | 0.0367 ± 0.14
AATAGGGC | -0.252 ± 0.022
AGCTGAGC | -0.174 ± 0.014
CTGCGATC | 0.0258 ± 0.0016
AAAGGCAT | -0.0624 ± 0.02
AATCCTTG | -0.1258 ± 0.0011
GGAGGCGA | 0.22 ± 0.015
TCGCCAAA | 0.0695 ± 0.043
ATTTGCTG | -0.0673 ± 0.043
CCTCATTA | -0.242 ± 0.0051
AATATCAC | 0.30788 ± 0.00011
CAGCGACC | -0.129 ± 0.2
AAGTCAAC | 0.0939 ± 0.029
AGTTCTCG | 0.197 ± 0.0035
ATACTTCA | -0.169 ± 0.0046
ACGGCTCT | -0.15 ± 0.033
ATCCCCGA | -0.194 ± 0.082
CAATAAGA | -0.203 ± 0.026
ATCTTAAA | -0.154 ± 0.073

Sequence | PBM E-score of 8-mer
CCTTGCTA | 0.084 ± 0.032
GAGCCCCC | -0.199 ± 0.016
CAAGCGGA | -0.141 ± 0.0045
ATACAATG | 0.0217 ± 0.0012
GGGGCACC | -0.0842 ± 0.028
AACATGGC | -0.194 ± 0.054
AATGGGAA | -0.314 ± 0.005
AAGAAGAT | -0.0983 ± 0.045
CGGTGAAA | -0.0916 ± 0.099
AAAGTAAA | -0.223 ± 0.024
ATTGCATC | -0.201 ± 0.029
ATGAGTAA | -0.0606 ± 0.02
AGAAAGTG | 0.314 ± 0.05
CTTTTCCC | -0.109 ± 0.06
ATCACAAC | 0.299 ± 0.0047
GTACATAC | -0.0822 ± 0.037
TCTGCAAA | -0.106 ± 0.0089
AGCGCCGA | 0.178 ± 0.037
AGAGCCTA | -0.322 ± 0.024
GCAATAGA | -0.114 ± 0.035
AACACGTT | 0.386 ± 0.014
AAGAAATA | 0.157 ± 0.026

Sequence | PBM E-score of 8-mer
ATGCTATA | -0.182 ± 0.01
CTCCTTTA | 0.00851 ± 0.0065
GCTCCACA | -0.0189 ± 0.02
GAAAAAGC | -0.134 ± 0.01
CAACTGAC | 0.191 ± 0.039
ACGAAAAG | -0.162 ± 0.13
GATCGGAC | -0.176 ± 0.04
GTTACCCA | 0.0913 ± 0.06
ATATGCAC | -0.124 ± 0.038
AGGTGGTC | -0.0579 ± 0.012
AAGTATCA | 0.149 ± 0.091
ATCGTTGG | 0.06 ± 0.07
ACCTGAGG | 0.0955 ± 0.086
GCGATAGA | 0.243 ± 0.013
AAGATTAC | -0.178 ± 0.0038
ACACGCGG | 0.165 ± 0.0052
GCTACACC | 0.207 ± 0.026
ATATAGCA | 0.141 ± 0.013
CAAACCAA | -0.248 ± 0.099
ACATGTAG | -0.13 ± 0.065
GCCTGGAA | -0.232 ± 0.045
CGCTACCC | 0.142 ± 0.027

Sequence | PBM E-score of 8-mer
CAACACTG | 0.289 ± 0.0071
CGTTCAGA | -0.201 ± 0.11
AGTACAAA | -0.0892 ± 0.035
CGGCGATA | 0.0663 ± 0.038
AAACTGCC | 0.0053 ± 0.013
CGATAACA | 0.25 ± 0.029
ATGATGCA | 0.102 ± 0.023
ATTGCATA | -0.0736 ± 0.052
AACACGAG | 0.132 ± 0.0066
CCGCAGAG | -0.307 ± 0.087
ACACAAAT | -0.0735 ± 0.016
AAGCATGG | -0.154 ± 0.029
ACTGATAT | 0.106 ± 0.019
AGCTAACC | -0.261 ± 0.041
ATGAGGAG | -0.0971 ± 0.051
AGAAGCCA | -0.227 ± 0.072
ATCGATGC | -0.0132 ± 0.054
CCCGTCAC | 0.368 ± 0.03
GACGATAA | 0.0373 ± 0.0056
AGCGGCAT | -0.046 ± 0.0046
CCGACTAG | 0.08 ± 0.023
AAATTTAT | -0.0896 ± 0.094

Sequence | PBM E-score of 8-mer
CTTAATGA | -0.149 ± 0.099
TTCACCAA | -0.0625 ± 0.074
GTCCAGGA | -0.195 ± 0.049
GCATTTCC | -0.0797 ± 0.0039
GATCTTCC | -0.0847 ± 0.04
AATCACGG | 0.0105 ± 0.017
AGTATCAC | 0.277 ± 0.055
ATGCGGAA | -0.0719 ± 0.0072
CCACACGG | 0.0921 ± 0.0026
GTCGTACA | -0.208 ± 0.038
CGGCACAG | 0.103 ± 0.071
GAGATTTA | -0.0795 ± 0.052
AACACTAC | 0.241 ± 0.063
AGAATCGC | 0.176 ± 0.0087
CACTATGC | 0.129 ± 0.027
CCGCGAAA | 0.305 ± 0.027
CAAAGCTA | -0.107 ± 0.006
ACGCCAAA | 0.213 ± 0.0076
AGCCGTGC | -0.113 ± 0.04
ACTTAATA | 0.02 ± 0.1
GGATTGAC | 0.0766 ± 0.0056
